# A collection of fitness landscapes (doi:10.1016/j.celrep.2020.107928)
# In all, about 81,000 sequences were measured (“one-hybrid fitness for binding NBS DNA”: median about -0.1, highest 2% from about 0.36 on). Some of the results follow.
# B1: Caulobacter ParB omega fusion; a variant is named by its letters at X, in order, B8GW30 (parent)
# chain: MESVVVGEPGMSEGRRGLGRGLSALLGEVDAAPAQAPGEQLGGSREAPIEILQRNPDQPRRTFREEDLEDLSNSIREKGVLQPILVRPSPDTAGEYQIVAGERAWRAAQRAGLKTVPIMVRELDDLAVLEIGIIENVQRADLNVLEEALSYKVLMEKFERTQENIAQTIGKSXSHVANXMRLLXLPDEVQSYLVSGELTAXHARAIAAAADPVALAKQIIEGGLSVRETEALARKAPNLSAGKSKGGRPPRVKDTDTQALESDLSSVLGLDVSIDHRGSTGTLTITYATLEQLDDLCNRLTRGI
# Variants of: B1
# Assay: one-hybrid fitness for binding NBS DNA (the Noc-binding site; scaled: cognate 1, non-cognate 0); higher = stronger binding
# Conditions: with NBS DNA site
# Outline: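 In E. coli USO, a HIS3 reporter with its site placed 19 bp from the promoter was used to select Caulobacter ParB variants randomised at four specificity codons. Growth lasted 48 hours at 37°C on histidine-free M9 containing 0.1 mM IPTG and 5 mM 3-AT. Fitness was taken as the log change in variant-to-wild-type read ratio from Illumina sequencing of pre- and post-selection plasmids, rescaled between the non-cognate and cognate sites.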
row,Variant,one-hybrid fitness for binding NBS DNA
1,LRCG,≤ 0.2
2,TSEG,≤ 0.2
3,ITTD,≤ 0.2
4,FHYG,≤ 0.2
5,TQDN,≤ 0.2
6,PNIN,≤ 0.2
7,RNDV,≤ 0.2
8,VFAS,≤ 0.2
9,NGFG,≤ 0.2
10,QKKL,0.213
11,GAYF,≤ 0.2
12,VADV,≤ 0.2
13,RENC,≤ 0.2
14,RKLF,≤ 0.2
15,RSQF,≤ 0.2
16,PSYV,≤ 0.2
17,HFSG,≤ 0.2
18,PEQC,≤ 0.2
19,QGPT,≤ 0.2
20,CNGC,≤ 0.2
21,VYET,≤ 0.2
22,CVNG,≤ 0.2
23,GYPR,≤ 0.2
24,YSQT,≤ 0.2

row,Variant,one-hybrid fitness for binding NBS DNA
1,GVCG,≤ 0.2
2,TNHE,≤ 0.2
3,TTQY,≤ 0.2
4,QTRN,0.543
5,LSRG,≤ 0.2
6,VLEN,≤ 0.2
7,IRRG,0.242
8,DQIF,≤ 0.2
9,RGYG,≤ 0.2
10,HCHR,≤ 0.2
11,SDVA,≤ 0.2
12,GKYW,≤ 0.2
13,RLLC,≤ 0.2
14,PAGW,≤ 0.2
15,SDNE,≤ 0.2
16,ALTV,≤ 0.2
17,LFWP,≤ 0.2
18,AVQS,≤ 0.2
19,PWRN,≤ 0.2
20,AVSK,≤ 0.2
21,RDTS,≤ 0.2
22,NNSV,≤ 0.2
23,HPSI,≤ 0.2
24,KRYT,0.613

row,Variant,one-hybrid fitness for binding NBS DNA
1,MVLK,≤ 0.2
2,PWKW,≤ 0.2
3,QSGA,0.291
4,SEGR,≤ 0.2
5,LRKK,≤ 0.2
6,RYWC,≤ 0.2
7,QLED,≤ 0.2
8,MYPM,≤ 0.2
9,VNRD,≤ 0.2
10,PAMV,≤ 0.2
11,PWMW,≤ 0.2
12,VTRH,≤ 0.2
13,DDTR,≤ 0.2
14,FVPC,≤ 0.2
15,CGYS,≤ 0.2
16,DPAK,≤ 0.2
17,DPQT,≤ 0.2
18,FAGD,≤ 0.2
19,VNQW,≤ 0.2
20,VPLI,≤ 0.2
21,PGNP,≤ 0.2
22,RVNC,≤ 0.2
23,SVCE,≤ 0.2
24,ENPQ,≤ 0.2

row,Variant,one-hybrid fitness for binding NBS DNA
1,QIFV,≤ 0.2
2,EPGI,≤ 0.2
3,HYQS,≤ 0.2
4,SMRF,≤ 0.2
5,IHKY,≤ 0.2
6,PPCE,≤ 0.2
7,QEGF,≤ 0.2
8,RTEI,≤ 0.2
9,VEMR,≤ 0.2
10,RQPV,≤ 0.2
11,AHSN,≤ 0.2
12,VDCA,≤ 0.2
13,ANRP,≤ 0.2
14,NHGT,≤ 0.2
15,MSAR,≤ 0.2
16,EVMS,≤ 0.2
17,DNKF,≤ 0.2
18,CLQW,≤ 0.2
19,RVYK,≤ 0.2
20,HVNC,≤ 0.2
21,WADV,≤ 0.2
22,LHSC,≤ 0.2
23,ECAY,≤ 0.2
24,WRIG,≤ 0.2

row,Variant,one-hybrid fitness for binding NBS DNA
1,LNTM,≤ 0.2
2,AHCL,≤ 0.2
3,PSHQ,≤ 0.2
4,EPAG,≤ 0.2
5,QKGV,≤ 0.2
6,WESY,≤ 0.2
7,SGVL,≤ 0.2
8,PKMM,≤ 0.2
9,MRRE,≤ 0.2
10,VRQT,≤ 0.2
11,ASAK,≤ 0.2
12,LDAA,≤ 0.2
13,CLLD,≤ 0.2
14,LPEA,≤ 0.2
15,DPRT,≤ 0.2
16,QMAH,0.231
17,WAQG,≤ 0.2
18,RTHR,0.631
19,ERWT,≤ 0.2
20,WMEK,≤ 0.2
21,YPWN,≤ 0.2
22,RVSK,≤ 0.2
23,PWAD,≤ 0.2
24,WMPF,≤ 0.2

row,Variant,one-hybrid fitness for binding NBS DNA
1,PVNK,≤ 0.2
2,TPRM,≤ 0.2
3,FYGG,≤ 0.2
4,GAHS,≤ 0.2
5,CAHT,≤ 0.2
6,RHWN,≤ 0.2
7,ADQV,≤ 0.2
8,RFTD,≤ 0.2
9,LCAF,≤ 0.2
10,MLRV,≤ 0.2
11,VPGE,≤ 0.2
12,YWMT,≤ 0.2
13,RMGI,≤ 0.2
14,NLWV,≤ 0.2
15,ITIY,≤ 0.2
16,KYRF,≤ 0.2
17,MWMS,≤ 0.2
18,VMYR,≤ 0.2
19,SASG,≤ 0.2
20,CGML,≤ 0.2
21,YIIN,≤ 0.2
22,MHVD,≤ 0.2
23,QCPH,≤ 0.2
24,ATEE,≤ 0.2

row,Variant,one-hybrid fitness for binding NBS DNA
1,QQQI,≤ 0.2
2,AGYS,≤ 0.2
3,MHNL,≤ 0.2
4,SMVS,≤ 0.2
5,CSNW,≤ 0.2
6,HTTS,≤ 0.2
7,DHMT,≤ 0.2
8,GEVR,≤ 0.2
9,SRKK,≤ 0.2
10,CVHY,≤ 0.2
11,EPTS,≤ 0.2
12,ITST,≤ 0.2
13,PRGF,≤ 0.2
14,EKDR,≤ 0.2
15,IYSS,≤ 0.2
16,VKEG,≤ 0.2
17,AHPN,≤ 0.2
18,HSQC,≤ 0.2
19,DRVR,≤ 0.2
20,AVKY,≤ 0.2
21,RQRD,≤ 0.2
22,RTMP,≤ 0.2
23,QCTS,0.458
24,IATM,≤ 0.2

row,Variant,one-hybrid fitness for binding NBS DNA
1,CQTL,≤ 0.2
2,KRTA,0.355
3,AYTS,≤ 0.2
4,NMGR,≤ 0.2
5,CHQM,≤ 0.2
6,FSIT,≤ 0.2
7,SAIT,≤ 0.2
8,AVHW,≤ 0.2
9,WRHR,≤ 0.2
10,HCAW,≤ 0.2
11,NKWE,≤ 0.2
12,QNIV,≤ 0.2
13,LSHH,≤ 0.2
14,MFKT,≤ 0.2
15,TFDS,≤ 0.2
16,QEMV,≤ 0.2
17,FDRG,≤ 0.2
18,DCNV,≤ 0.2
19,YYIS,≤ 0.2
20,GFTV,≤ 0.2
21,NGKG,≤ 0.2
22,HMNT,≤ 0.2
23,AKPV,≤ 0.2
24,HLGE,≤ 0.2

row,Variant,one-hybrid fitness for binding NBS DNA
1,ESCC,≤ 0.2
2,CARR,≤ 0.2
3,EGER,≤ 0.2
4,GNAC,≤ 0.2
5,DCHN,≤ 0.2
6,EDPF,≤ 0.2
7,ILYQ,≤ 0.2
8,DHTF,≤ 0.2
9,KGDG,≤ 0.2
10,VWGT,≤ 0.2
11,WCNS,≤ 0.2
12,IGKG,≤ 0.2
13,NWRM,≤ 0.2
14,YKAC,≤ 0.2
15,ATPP,≤ 0.2
16,TLVM,≤ 0.2
17,MTSD,≤ 0.2
18,TIHV,≤ 0.2
19,DLEL,≤ 0.2
20,GLYS,≤ 0.2
21,NHGV,≤ 0.2
22,HCQR,≤ 0.2
23,TSYF,≤ 0.2
24,YGNV,≤ 0.2

row,Variant,one-hybrid fitness for binding NBS DNA
1,RWFC,≤ 0.2
2,NRWE,≤ 0.2
3,SSWG,≤ 0.2
4,RQMG,≤ 0.2
5,QKVR,0.423
6,LESG,≤ 0.2
7,ENYG,≤ 0.2
8,CLAF,≤ 0.2
9,RKVS,0.426
10,QCSK,≤ 0.2
11,HQQG,≤ 0.2
12,MAKR,0.277
13,VSQN,≤ 0.2
14,KCES,≤ 0.2
15,YMYG,≤ 0.2
16,WRAY,≤ 0.2
17,QNDF,≤ 0.2
18,NRDR,≤ 0.2
19,ADSM,≤ 0.2
20,KKDC,≤ 0.2
21,YPEN,≤ 0.2
22,PNHR,≤ 0.2
23,LWPC,≤ 0.2
24,PRVR,≤ 0.2

row,Variant,one-hybrid fitness for binding NBS DNA
1,TTLH,≤ 0.2
2,DAFC,≤ 0.2
3,HLAI,≤ 0.2
4,DKNG,≤ 0.2
5,NVPK,≤ 0.2
6,KCFS,≤ 0.2
7,VTHW,≤ 0.2
8,VYRA,≤ 0.2
9,AACD,≤ 0.2
10,KPTN,≤ 0.2
11,QYNC,≤ 0.2
12,TSAY,≤ 0.2
13,CLPI,≤ 0.2
14,EPSI,≤ 0.2
15,VLDF,≤ 0.2
16,PCQF,≤ 0.2
17,SYES,≤ 0.2
18,RTQL,≤ 0.2
19,DYVT,≤ 0.2
20,EHDR,≤ 0.2
21,PCSA,≤ 0.2
22,LALA,≤ 0.2
23,RPVV,≤ 0.2
24,SMQG,≤ 0.2

row,Variant,one-hybrid fitness for binding NBS DNA
1,ILWG,≤ 0.2
2,PTPH,≤ 0.2
3,QSPA,≤ 0.2
4,NHRC,≤ 0.2
5,FTFC,≤ 0.2
6,VDRV,≤ 0.2
7,TKMR,≤ 0.2
8,PQWL,≤ 0.2
9,MSDP,≤ 0.2
10,QEVR,≤ 0.2
11,KDLI,≤ 0.2
12,RVYD,≤ 0.2
13,SIQQ,≤ 0.2
14,PWEY,≤ 0.2
15,CIDV,≤ 0.2
16,PIDY,≤ 0.2
17,HPMC,≤ 0.2
18,RLLE,≤ 0.2
19,PMMG,≤ 0.2
20,RMVS,0.29
21,CLGG,≤ 0.2
22,PSPN,≤ 0.2
23,KVVL,≤ 0.2
24,QFLV,≤ 0.2

row,Variant,one-hybrid fitness for binding NBS DNA
1,CKRC,≤ 0.2
2,ETMR,≤ 0.2
3,LTRS,≤ 0.2
4,PGYF,≤ 0.2
5,SIQW,≤ 0.2
6,HWLC,≤ 0.2
7,DGKI,≤ 0.2
8,PPTE,≤ 0.2
9,WWIG,≤ 0.2
10,CSVS,≤ 0.2
11,ANGS,≤ 0.2
12,AVDY,≤ 0.2
13,TGEE,≤ 0.2
14,PGYD,≤ 0.2
15,FATC,≤ 0.2
16,FRPM,≤ 0.2
17,DVNS,≤ 0.2
18,WVRR,≤ 0.2
